The source of these data is a protein production outcome set (Wang et al. 2014).

The nature of the data set: label from the status in PepcDB records.

For “MGCIKSKENKSPAIKYTPENLTEPVSPSASHYGVEHATVAPTSSTKGASVNFNSLSMTPFGGSSGVTPFGGASSSFSVVSSSYPTGLTGGVTIFVALYDYEARTTEDLSFKKGERFQIINNTEGDWWEARSIATGKSGYIPSNYVVPADSIQAEEWYFGKMGRKDAERLLLNPGNQRGIFLVRESETTKGAYSLSIRDWDEVRGDNVKHYKIRKLDNGGYYITTRAQFDTLQKLVKHYTEHADGLCHKLTTVCPTVKPQTQGLAKDAWEIPRESLRLEVKLGQGCFGEVWMGTWNGTTKVAIKTLKPGTMMPEAFLQEAQIMKKLRHDKLVPLYAVVSEEPIYIVTEFMSKGSLLDFLKEGDGKYLKLPQLVDMAAQIADGMAYIERMNYIHRDLRAANILVGENLICKIADFGLVRLIEDNEYTARQGAKFPIKWTAPEAALYGRFTIKSDVWSFGILQTELVTKGRVPYPGMVNREVLEQVERGYRMPCPQGCPESLHELMNLCWKKDPDERPTFEYIQSFLEDYFTATEPQYQPGENL”, the protein production entry is given as “not failed”.
The same measure for “MKMKTKIFRVKGKFLMGDKLQPFTKELNAIREEEIYERLYSEFGSKHRVPRSKVKIEEIEEISPEEVQDPVVKALVQRLEHHHHHH”: “not failed”.
